Test results from the RNAGym collection of RNA variant scans (doi:10.1073/pnas.2313332121).
Variants at the background level are over-represented here.

B1: TPR 5TU (parent)
chain: GGAUCUUCUCGAUCUAACAAAAAAGACAAAUCUGCCACAAAGCUUGAGAGCAUCUUCGGAUGCAGAGGCGGCAGCCUUCGGUGGCGCGAUAGCGCCAACGUUCUCAACUAUGACACGCAAAACGCGUGCUCCGUUGAAUGGAGUUUAUCAUG

Variants of: B1
Assay: polymerase ribozyme fitness, log enrichment relative to wild type (log ratio); higher = more active; in vitro selection for triplet polymerase activity
Method in brief: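 Frozen incubation at −7 °C formed the core of a single, triplicate in vitro selection round applied to PCR-built, transcribed mutant libraries of each subunit of a heterodimeric triplet polymerase ribozyme. Extended constructs were gel-excised, captured with streptavidin beads and amplified by RT-PCR, and input and output libraries were Illumina-sequenced with a filter of ≥10 input reads and ≥1 read per output. Fitness is the logarithm of genotype enrichment relative to wild-type enrichment, with inverse-variance-weighted replicate averaging, and the logarithm is base 2.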
For GGAUCUUCUCGAUCUAACAAAAGAGACAUAUCUGCCACAAAGCUUGAGAGCAUCUUCGGAGGCAGAGGCGGCAGCCUUCGGUGGCGCGAUAGCGCCAAUGUUCUCAACUAUGACACGCAAAACGCGUGCUCCGUUGAAUGGAGUUUAUCAUG [A23G A29U U61G C99U], the “polymerase ribozyme fitness (log ratio)” value was at most -4.2.
With GGAUCUUCUCGAUCUAACAAAAGAGACAAAUCUGCCCCAAAGCAUGAGAGCAUCUUAGGAUGCAGAGGCGGCAGCCUUCGGUGGCGUCAUAGCGCCAACGUUCUCAACUAUGACACGCUAAACGCGUGCUCCGUUGAAUGGAGUUUUUCAUG [A23G A37C U44A C57A C87U G88C A119U A147U] the “polymerase ribozyme fitness (log ratio)” value was at most -4.2.
With GGAUCUUCUCGAUCUAACAAAAGAGACAAAUCUGCCACGAACCUUGAGAGCAUCUUCGGAUGCAGAGGCGGCAGCCUUCGGUGGCGCGAUAGCGCCAACGGUCUCAACUAUGACACGCAAAACGCGUGCUCCGUUGAAUGGAGUUUAUCAUG [A23G A39G G42C U101G] the “polymerase ribozyme fitness (log ratio)” value was at most -4.2.
For GGAUCUUCUCGAUCUAACAAAAGAGACAAAUCUGCCACAGAGCUUGAGAUCAUCUUCGGAUGCAGAGGCGGCAGCAUUCGGUGCCGCGAUAGCGCCAACGUUCUCAACUAUGACACGCAAAACGCGUGCUCCGUUGAAUGGAGUUUAUCAUG [A23G A40G G50U C76A G84C], the “polymerase ribozyme fitness (log ratio)” value was at most -4.2.
In the case of GGAUCUUCUCGAUCUAACAAAAGAGACAAAUCUGCCACAAAGCUUGCGAGCAUCUUCGGAUGCAGAGGCGGCAGCCUUCGGUGGCGCGAUAGGGCCAACGUUCUGAACUAUGACACGCAAAACGCGUGCUCCGUUGAAUGGAGUUUAUCAUG [A23G A47C C93G C105G], the “polymerase ribozyme fitness (log ratio)” value is reported as at most -4.2.
With GGAUCUUCUCGAUCUAACAAAAGAGACAAAUCUGCCACAAAGCUUGGGAGCAUCUUCGGAUGCAGAGGCGGCAGGCUUCGGUGGGGCGAUAGCGCCAACGUUCUCAACUAUGACACGCAAACCGCGUUCUCCGUUGAAUGGAGUUUAUCAUG [A23G A47G C75G C85G A122C G128U] the “polymerase ribozyme fitness (log ratio)” value was at most -4.2.
In the case of GGAUCUUCUCGAUCUAACAAAAGAGACAAAUCUGCCACAAAGCUUGAGAGCAUCUUCGGAUGCAGAGGCGGCAGCCUUCGGUGGCGCGAUUGCGCCAACGUUCUCAACUAUGACACGCAAAACGCGUGCUCCGUUGAAUCGAGUUUAUCAUG [A23G A91U G140C], the “polymerase ribozyme fitness (log ratio)” value is reported as at most -4.2.
With GGAUCUUCUCGAUCUAACAAAAGAGACAAAUCUGUCACAAAGCUUGAGAGCAUCUUGGGAUGCAAAGGCGGCAGCCUUCGGUGGCGCGAUAGCGCCAACGUUCUCAACUAUGACACGCAAAACGCGUGCUCCGUUGAAUGGAGUUUAUCAUG [A23G C35U C57G G65A] the “polymerase ribozyme fitness (log ratio)” value was at most -4.2.
With GGAUCUUCUCGAUCUAACAAAAGAGACAAAUCUGUCACAAAACUUGAGAGCAUCUACGGAUGCAGAAGCGGCAGCCUUCGGUGGAGCGAUAGCUCCAACGUUCUCAACUAUGCCACGCAAAACGCGUGCUCCGUUGAAUGGAGUUUAACAUG [A23G C35U G42A U56A G67A C85A G94U A113C U148A] the “polymerase ribozyme fitness (log ratio)” value was at most -4.2.
For GGAUCUUCUCGAUCUAACAAAAGAGACAAAUCUGCAACAAAGCUUGAGAGCAUCUUCGGAUGCAGAGGCGGCAGCCUUCGGUGGCGCGAUAGCGCCAACGUUCUAAGCUAUGACACGCAAAACGCGUGCUCCGUUGAAUGGAGUAUAUCAUG [A23G C36A C105A A107G U145A], the “polymerase ribozyme fitness (log ratio)” value was at most -4.2.
For GGAUCUUCUCGAUCUAACAAAAGAGACAAAUCUGCCAGAAAGCUUGAGAGCAUCUUCGGAUGCAGAGGCGGCAGCCUUCGGUGGCGCGAUAGCGUCAACGUUCUCAACUAUGAGACGCAAAACGCGUGCUCCGUUGAAUGGAGUUUAUCAUG [A23G C38G C95U C114G], the “polymerase ribozyme fitness (log ratio)” value was -3.85.
In the case of GGAUCUUCUCGAUCUAACAAAAGAGACAAAUCUGCCAUAAAGCUUGAGCGCAUCUUCGGAAGCAGAGGCGGCAGCCUUCGGUAGCGCGAUAGCGCCAACGUUCUCACCUAUGACAAGCAAAACGCGUGCUCCGUUGAAUGGAGUUUAUCAUG [A23G C38U A49C U61A G83A A107C C116A], the “polymerase ribozyme fitness (log ratio)” value is reported as at most -4.2.
With GGAUCUUCUCGAUCUAACAAAAGAGACAAAUCUGCCAUAAAGCUUGAGAGCAUCCUCGGAUGCAGAGGUGGCAGCCUUCGGUGGCGCGAUAGCGCCAUCGUUCUCAACUAUGACAUGCAUAACGCGUGCUCCGUUGAAUGUAGUUUCUCAUG [A23G C38U U55C C69U A98U C116U A120U G141U A147C] the “polymerase ribozyme fitness (log ratio)” value was at most -4.2.
With GGAUCUUCUCGAUCUAACAAAAGAGACAAAUCUGCCACAAAGCUUGAGAGCAUCUUUAGAUGCAGAGGCGGCAGCCUUCGGUGGCGAGAUAGCGCCAACGUUCUCAACUCUGUCACGCAAAUCGCGUGCUCCGUUGUAUGGAGUUUAUCAUG [A23G C57U G58A C87A A110C A113U A122U A137U] the “polymerase ribozyme fitness (log ratio)” value was at most -4.2.
For GGAUCUUCUCGAUCUAACAAAAGAGACAAAUCUGCCACAAAGCUUGAGAGCAUCUUCGGAUGCAGAGGCGGUAGCCUUCGGUGGCGCGAUAGCGCCAACGUUCUCAACUAUGACACGCAAAACGCGUGCUCCGUUGAAUGGAGUUUAUCAUG [A23G C72U], the “polymerase ribozyme fitness (log ratio)” value was -3.74.
In the case of GGAUCUUCUCGAUCUAACAAAAGAGACAAAUCUGCCACAAAGCUUGAGAGCAUCUUCGGAUGCAGAGGCGGCAGCAUUCGGUGGCGCGAUAGCGCCAACGUUCUCAACUAUGACACGCAAAACGCGUGCUCCGUUGAAUGGAGUUUAUCAUG [A23G C76A], the “polymerase ribozyme fitness (log ratio)” value is reported as -2.49.
For GGAUCUUCUCGAUCUAACAAAAGAGACAAAUCUGCCACAAAGCUUGAGAGCAUCUUCGGAUGCAGAGGCGGCAGCCUUCGGUGGUGCGAUAGUGCCAACGUUCUCAACUAUGACACGCAAAACGCGUGCUCCGUUGAGUGGAGUUUAUCAUG [A23G C85U C93U A138G], the “polymerase ribozyme fitness (log ratio)” value was at most -4.2.
For GGAUCUUCUCGAUCUAACAAAAGAGACAAAUCUGCCACAAAGCUUGAGAGCAUCUUCGGAUGCAGAGGCGGCAGCCUUCGGUGGUGCGAUAGCGUCAACGUUCUCAACUAUGACACGCAAAACGCGUGCUCCUUUGAAUGGAGUUUAUCAUG [A23G C85U C95U G133U], the “polymerase ribozyme fitness (log ratio)” value was -4.
For GGAUCUUCUCGAUCUAACAAAAGAGACAAAUCUGCCACAAAGCUUGAGAGCAUCUUCGGAUGCAGAGGCGGCAGCCUUCGGUGGCGCGAUAGGGCCAACGUUCUCAACUAUGACACGCAAAACGCGUGCUCCGUUGAAUGGAGUUUAUCAUG [A23G C93G], the “polymerase ribozyme fitness (log ratio)” value was at most -4.2.
